From PubChem BioAssay AID1963576 (National Center for Advancing Translational Sciences (NCATS), 2024)
About 60 (0.1%) of roughly 46,000 compounds were called active. Inconclusive results (about 3%) are left out. Calls follow the shape of the dose curve; as a rule, active = well fitted inhibition curve with a large enough effect; inconclusive = small, poorly fitted or top-dose-only effect; inactive = no such curve, though single readings can be large or run the other way. This is one part of the list.

Test: Primary qHTS assay for Inhibitors of ovarian cancer metastasis using an organotypic tumor microenvironment (TME) model. Also: nearly all actives have a fitted effect of over 65% in size.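 As to activity change, negative = inhibition: plate controls were DMSO wells for no effect and tomatine positive control wells for full effect.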
Settings: SKOV3ip1-GFP adhesion/invasion on 3D omental model, fluorescence; series mostly up to 45.8 µM; activity change, negative = inhibition: at the top concentration
How it was run: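 qHTS, 4-pt dose (0.36-46 umol/L); SKOV3ip1-GFP, 1,200 cells/well, no FBS; primary omental fibroblast/mesothelial co-culture 48 h pre-grown; 2 h RT + 16 h 37 C; PBS wash, 4% PFA; GFP count 488/509 nm.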

outcome, inactive:
O=C(CN1C(=O)CCc2cc(S(=O)(=O)N3CCOCC3)ccc21)NCc1ccc(Cl)cc1
Cc1ccc(OCC(=O)Nc2ccc3nc(SCCOc4ccccc4)sc3c2)cc1
Cc1cc(C)c(NC(=O)CSc2nc3ccncc3[nH]2)c(C)c1
COc1ccc(CNC(=O)c2ccc3nc(C(C)C)oc3c2)cc1OC
Cc1ccc(NC(=O)CN2C(=O)COc3ccc(S(=O)(=O)Nc4ccccc4)cc32)c(C)c1
Cc1nn2c(=O)cc(COC(=O)COc3ccc(F)cc3)nc2s1
COc1ccc(NC(=O)C2=CC(c3ccco3)=NS(=O)(=O)N2C)cc1
Cc1ccccc1C(=O)Nc1cccc(OCc2cc(=O)n3c(C)csc3n2)c1
Cc1ccc(C)c(NC(=O)CN2CCSc3ccc(S(=O)(=O)N4CCCC4)cc32)c1
CCOC(=O)c1oc2ccc(S(=O)(=O)n3nc(-c4ccc(C)cc4)cc3N)cc2c1C
COc1cccc2sc(N(Cc3cccnc3)C(=O)c3ccc4c(c3)OCCO4)nc12
CC(NC(=O)C1CCN(S(=O)(=O)Cc2ccccc2)CC1)c1ccccc1 (configuration not stated)
COc1ccc(Cl)cc1NC(=O)c1cc2c(=O)n3ccccc3nc2s1
CN(c1ccccc1)S(=O)(=O)c1ccc(NC(=O)c2nc(S(C)(=O)=O)ncc2Cl)cc1
O=C1Nc2ccccc2Oc2cc(Oc3ccccc3)ccc21
Cc1cccc(Cn2c(=O)n3nc(-c4ccccc4)nc3c3ccccc32)c1
CCC(C)c1ccc2oc(-c3ccc(NC(=O)c4cc5ccccc5o4)cc3)nc2c1 (configuration not stated)
CCc1ccc(NC(=O)c2ccc(-c3ccccc3)s2)cc1
CN(C(=O)CSc1nnc(NC(=O)Nc2ccccc2)s1)c1ccccc1
COC(=O)c1c(NC(=O)c2ccc(S(=O)(=O)N3CCC(C)CC3)cc2)sc2c1CCN(C)C2
Brc1cccc(-c2nnn3c2nc(NCc2ccc4c(c2)OCO4)c2ccccc23)c1
CCCC(=O)N(c1ccc2oc(C)c(C(C)=O)c2c1)S(=O)(=O)c1ccc(CC)cc1

Activity change, negative = inhibition, inactive:
CCOc1ccc(-c2nnc(SCC(=O)c3ccc(Br)cc3)n2-c2ccccc2)cc1 -5.64%
O=S(=O)(Nc1ccc(F)cc1F)c1ccc(-n2cccn2)cc1 2.3%
COCCn1c(SCC(=O)c2c[nH]c3ccccc23)nc2cc(C(=O)NC(C)C)ccc2c1=O -1.64%
COCCCNC(=O)c1ccc(C)c(-n2c(C)nc3cccnc32)c1 0.993%
Cc1nc2ccn(Cc3cccnc3)c(=O)c2cc1C(=O)Nc1ccc(F)cc1F 4.61%
CCOC(=O)Cn1c(=O)oc2cc(S(=O)(=O)N3CCC(C(=O)OCC)CC3)ccc21 -9.16%
Cc1ccc(NC(=O)CSc2nnc(-c3ccc(Br)cc3)o2)c(C)c1 0.736%
Cc1cc(C)c2c(=O)cc(C(=O)NCc3ccc(S(N)(=O)=O)cc3)oc2c1 -3.55%
COCCCNC(=O)CSc1nc(-c2ccc(OC)c(OC)c2)[nH]c1-c1ccc(F)cc1 0.0919%
CCc1ccc(NC(=O)CCc2nnc3n(C)c(=O)c4sccc4n23)cc1 69.3%
COC(=O)c1cc2oc3ccccc3c2n1Cc1c(C)cc(C)cc1C -3.95%
O=C1[C@H](Cc2ccc(O)cc2)N2C(=O)CCN(C(=O)NCc3ccccc3)[C@H]2CN1Cc1cccc2ccccc12 -28.8%
Cc1ccc(C2=NC(c3ccccc3)=Nc3ccc(Cl)cc3N2)cc1 18.3%
Cc1nc2cccnc2n1-c1cccc(C(=O)NCCc2ccc(S(N)(=O)=O)cc2)c1 -9.37%
Cc1cccc(NC(=O)C2CCCN(S(=O)(=O)c3ccc(Br)s3)C2)c1 (configuration not stated) 3.23%
COc1cc2ccccc2cc1C(=O)Nc1cccc(-c2nc3cc(C)ccc3o2)c1C 8.15%
Cc1ccccc1S(=O)(=O)Cc1ccc(C(=O)N2CCN(c3cccc(Cl)c3)CC2)o1 -1.58%
CCN(CC)CCOC(=O)c1ccc(NC(=O)c2cc3c(=O)n(CC)c4ccccc4c3s2)cc1 -11.5%
CCN1CCN(Cc2c(O)ccc3c(C)c(-c4ccc(OC)cc4)c(=O)oc23)CC1 -2.58%
Cc1cccc(NC(=O)c2cc(S(=O)(=O)NCCc3ccccc3)ccc2F)c1C -5.68%
COc1ccccc1C1c2c(-c3ccc(Cl)cc3)n[nH]c2C(=O)N1c1ccc(C)cc1 (configuration not stated) -8.12%
Cc1ccc(S(=O)(=O)N2CCC(C(=O)NCc3ccccc3Cl)CC2)cc1 -2.15%
N#Cc1ccc(-c2cccs2)nc1SCC(=O)Nc1cccc(C(F)(F)F)c1 -20.4%
CCCCCn1c(=O)[nH]c2cc(C(=O)Nc3ccc(F)c(F)c3)ccc2c1=O -8.92%
Cc1cc(SCC(=O)NCc2ccc(Cl)cc2)nc(=O)[nH]1 -16.2%
COc1ccccc1N1CCN(c2ncnc3c2nnn3C)CC1 2.06%
Oc1cc(O)cc(C=Cc2ccc(O)c(O)c2)c1 1.34%
CCOCCn1ccc2c(OCC(=O)Nc3ccc(C(N)=O)cc3)cccc2c1=O -2.34%
CC(C)c1ccc(CN(C(=O)c2cc3ccccc3oc2=O)C2CCS(=O)(=O)C2)cc1 (configuration not stated) -2.93%
COc1ccc(NC(=O)C2CCN(S(=O)(=O)c3cccc(-c4noc(C)n4)c3)CC2)cc1OC 1.75%
CC(C)c1ccc(S(=O)(=O)N2CCC(n3c(C(F)(F)F)nc4cccnc43)CC2)cc1 -20.6%
COC(=O)c1cc2occc2n1Cc1nc(-c2ccccc2)oc1C 4.58%
CN(C)c1ccc(CNC(=O)C2CCN(c3nc4ccccc4[nH]3)CC2)cc1 -8.59%
CCCc1nn2c(=O)cc(COC(=O)c3ccc(NC(=O)COc4ccc(F)cc4)cc3)nc2s1 -13.8%
Cc1cc(S(=O)(=O)N2CCN(Cc3noc(CCC(=O)N4CCCCC4)n3)CC2)ccc1F 3.9%
COc1ccc(C2NC(=O)N(C)C3=C2C(=O)N(c2ccc(Br)cc2)C3)cc1 (configuration not stated) -15.2%
CSc1ccc(CCNC(=O)NCc2noc3ccccc23)cc1 4.04%
COc1cccc(CNC(=O)c2cnc3sc(N4CCCC4)nn3c2=O)c1OC 0.344%
COc1ccc(Cn2c(CCC(=O)NCc3ccc(Cl)cc3)nc3cccnc32)cc1 0.966%
CCOC(=O)CC(NC(=O)CCc1c(C)nc2c(-c3ccccc3)c(C)nn2c1C)c1ccc(OC(C)C)cc1 (configuration not stated) -29.2%
Cc1cccc(NC(=O)Cn2cc(C(=O)C3CCCCC3)c3ccccc32)c1 -5.58%
COc1ccc(CNc2nc(-c3ccco3)nn2S(=O)(=O)c2ccc(Cl)cc2)cc1OC 6.31%
O=C(CSc1cn(CC(=O)N2CCCC2)c2ccccc12)Nc1ccc(Cl)cc1 10.6%
Cc1ccc(C(=O)NCC(c2ccc3c(c2)OCO3)N2CCOCC2)cc1C (configuration not stated) 1.38%
CCOC(=O)c1cc(S(=O)(=O)Nc2cc(OC)ccc2OC)[nH]n1 -5.05%
Cc1cc(C)n(-c2nnc(Nc3ccc(C)c(C)c3)c3ccccc23)n1 38.7%
Cc1cc(O)c(C(c2cccc(F)c2)N2CCN(c3ccccc3)CC2)c(=O)n1Cc1ccco1 (configuration not stated) 4.76%
COC(=O)c1c(NC(=O)CCCOc2cccc(C)c2)sc2c1CCC2 -2.3%
COc1ccc(-c2c(C#N)c(SCC(=O)Nc3ccccc3C)nc(C)c2C(=O)Nc2ccc(Cl)cc2)cc1 -1.17%
COc1ccc(NC(=O)Cn2c(SCc3ccc(C)cc3)nc3cccnc32)cc1OC -4.06%
Cc1ccc(C)c(CN2C(=O)c3ccccc3S(=O)(=O)c3ccc(C(=O)OCC4CCCO4)cc32)c1 (configuration not stated) 5.57%
Cc1cccc(-c2nn3c(=O)cc(CN4CCN(C(=O)/C=C/c5ccccc5)CC4)nc3s2)c1 4.34%
COc1ccccc1Nc1nc(-c2ccccc2F)nc2ccccc12 -0.205%
Cn1c(=O)[nH]c2cc(-c3noc(-c4ccc(Br)cc4)n3)ccc21 7.29%
CC(C)c1ccc(S(=O)(=O)c2nnn3c2nc(N2CCCC2)c2sccc23)cc1 2.55%
COc1ccc(C2c3cc(OC)c(OC)cc3CC(=O)N2c2ccc(C)cc2)cc1 (configuration not stated) 0.324%
COc1cc2c(C(=O)Nc3cc(OC)c(OC)c(OC)c3)cn(C)c(=O)c2cc1OC 0.162%
Cc1cnc(Nc2cccc(CN3CCOCC3)c2)nc1Nc1cccc(S(=O)(=O)NC(C)(C)C)c1 -28.4%
O=C(NCCN1CCN(c2cccc(Cl)c2)CC1)Nc1ccccc1 -26.2%
Cc1ccc(NC(=O)CSc2nnc3ccc4ccccc4n23)cc1 -10.9%
O=C(CC1N=C2c3ccccc3N=C(SCc3ccc(F)cc3)N2C1=O)NCc1ccc2c(c1)OCO2 (configuration not stated) 2.63%
CCC(Oc1ccccc1)C(=O)Nc1nnc(S(=O)(=O)N(CC)CC)s1 (configuration not stated) -11.8%
CCc1cnc2c(c1SCC(=O)NCc1ccccc1Cl)c(=O)n(C)c(=O)n2C 3.43%
CCc1ccc(NC(=O)c2cnn(-c3ccccc3)c2-n2cccc2)cc1 6.52%
Cc1cccc(NC(=O)c2ccc(-c3ccccc3)s2)c1 -1.01%
CCOC(=O)C1CCN(c2ncnc3c2nc2n3CCCCC2)CC1 1.06%
Cc1cccc(C(=O)NCC(c2ccco2)S(=O)(=O)c2cccs2)c1 (configuration not stated) -5.23%
Cc1cc(C)c(NC(=O)C2CCN(c3nc4ccccc4n4cccc34)CC2)c(C)c1 -4.05%
Cc1ccccc1CNC(=O)c1cnc2sc(N3CCC(C)CC3)nn2c1=O 0.939%
COc1cc2ccccc2cc1C(=O)Nc1cccc(-c2nc3cc(C)c(C)cc3o2)c1 -6.37%
CC(C)NC(=O)C1CCC(Cn2c(=O)c3sccc3n(Cc3ccc(F)cc3)c2=O)CC1 (configuration not stated) 1.95%
COc1ccc(-n2ncc(C(=O)NCc3ccco3)c2C2CCN(C(=O)OC(C)(C)C)CC2)cc1 17.4%
O=C(NCC(c1cccnc1)N1CCc2ccccc21)c1cccc(Br)c1 (configuration not stated) -0.0587%
COc1ccc(N2CCN(c3ncnc4c3cnn4C)CC2)cc1 1.48%
CCOc1ccc(CCNC(=O)c2cc3cccc4c3n2CCS4)cc1 4.69%
